# Source: the supplement of paper PMC8728848
# The other results are listed elsewhere or left out.
# Experiments:
# Test in all cases: glycan array binding signal (z-score within array); higher = stronger binding
# Details in all cases: glycan notation: IUPAC condensed, linker removed
# GalNAc(b1-3)GalNAc = target: GalNAc(b1-3)GalNAc
# In short: (§1)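 Arrays were curated from the Consortium for Functional Glycomics database, 3228 in total, and kept only where the protein sequence was available. Binding is expressed as a within-array Z-score. This score was averaged across arrays of the same protein sequence at different concentrations or buffers and across linkers, and negative values can be read as non-binding.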
# GalNAc(b1-4)GlcNAc = target: GalNAc(b1-4)GlcNAc
# In short: as §1
# Glc(a1-4)Glc = target: Glc(a1-4)Glc
# In short: as §1
# Glc(a1-6)Glc(a1-6)Glc = target: Glc(a1-6)Glc(a1-6)Glc
# In short: as §1
# Glc(b1-4)Glc = target: Glc(b1-4)Glc
# In short: as §1
# Glc(b1-6)Glc = target: Glc(b1-6)Glc
# In short: as §1
# GlcA(b1-3)Gal = target: GlcA(b1-3)Gal
# In short: as §1
# GlcA(b1-3)GlcNAc = target: GlcA(b1-3)GlcNAc
# In short: as §1
# GlcA(b1-6)Gal = target: GlcA(b1-6)Gal
# In short: as §1
# [1] = target: GlcNAc(a1-3)Gal(b1-4)GlcNAc
# In short: as §1
# [2] = target: GlcNAc(a1-6)Gal(b1-4)GlcNAc
# In short: as §1
# [3] = target: GlcNAc(b1-2)Gal(b1-3)GalNAc
# In short: as §1
# [4] = target: GlcNAc(b1-2)Man(a1-3)[GlcNAc(b1-2)Man(a1-6)]Man(b1-4)GlcNAc(b1-4)GlcNAc
# In short: as §1
# GlcNAc(b1-3)Gal = target: GlcNAc(b1-3)Gal
# In short: as §1
# [5] = target: GlcNAc(b1-3)Gal(b1-3)GalNAc
# In short: as §1
# GlcNAc(b1-3)Gal(b1-4)Glc = target: GlcNAc(b1-3)Gal(b1-4)Glc
# In short: as §1
# [6] = target: GlcNAc(b1-3)Gal(b1-4)GlcNAc
# In short: as §1
# [7] = target: GlcNAc(b1-3)Gal(b1-4)GlcNAc(b1-3)Gal(b1-4)GlcNAc
# In short: as §1
# GlcNAc(b1-3)GalNAc = target: GlcNAc(b1-3)GalNAc
# In short: as §1
# GlcNAc(b1-3)Man = target: GlcNAc(b1-3)Man
# In short: as §1
# [8] = target: GlcNAc(b1-3)[GlcNAc(b1-4)][GlcNAc(b1-6)]GlcNAc
# In short: as §1
# [9] = target: GlcNAc(b1-3)[GlcNAc(b1-6)]Gal(b1-4)GlcNAc
# In short: as §1
# [10] = target: GlcNAc(b1-3)[GlcNAc(b1-6)]GalNAc
# In short: as §1
# [11] = target: GlcNAc(b1-4)Gal(b1-4)GlcNAc
# In short: as §1
# GlcNAc(b1-4)GlcNAc = target: GlcNAc(b1-4)GlcNAc
# In short: as §1
# [12] = target: GlcNAc(b1-4)GlcNAc(b1-4)GlcNAc
# In short: as §1
# [13] = target: GlcNAc(b1-4)GlcNAc(b1-4)GlcNAc(b1-4)GlcNAc(b1-4)GlcNAc
# In short: as §1
# [14] = target: GlcNAc(b1-4)GlcNAc(b1-4)GlcNAc(b1-4)GlcNAc(b1-4)GlcNAc(b1-4)GlcNAc
# In short: as §1
# [15] = target: GlcNAc(b1-4)[GlcNAc(b1-6)]GalNAc
# In short: as §1
# [16] = target: GlcNAc(b1-6)Gal(b1-4)GlcNAc
# In short: as §1
# GlcNAc(b1-6)GalNAc = target: GlcNAc(b1-6)GalNAc
# In short: as §1
# GlcNAc3Prop(b1-4)GlcNAc = target: GlcNAc3Prop(b1-4)GlcNAc
# In short: as §1
# Kdn(a2-3)Gal(b1-3)GlcNAc = target: Kdn(a2-3)Gal(b1-3)GlcNAc
# In short: as §1
# Kdn(a2-3)Gal(b1-4)GlcNAc = target: Kdn(a2-3)Gal(b1-4)GlcNAc
# In short: as §1
# [17] = target: Man(a1-2)Man(a1-2)Man(a1-3)Man
# In short: as §1
# [18] = target: Man(a1-2)Man(a1-2)Man(a1-6)[Man(a1-3)]Man
# In short: as §1
# Man(a1-2)Man(a1-3)Man = target: Man(a1-2)Man(a1-3)Man
# In short: as §1
# [19] = target: Man(a1-2)Man(a1-3)[Man(a1-2)Man(a1-6)]Man
# In short: as §1
# [20] = target: Man(a1-2)Man(a1-3)[Man(a1-2)Man(a1-6)]Man(a1-6)[Man(a1-2)Man(a1-2)Man(a1-3)]Man
# In short: as §1
# [21] = target: Man(a1-2)Man(a1-3)[Man(a1-2)Man(a1-6)]Man(a1-6)[Man(a1-2)Man(a1-2)Man(a1-3)]Man(b1-4)GlcNAc(b1-4)GlcNAc
# In short: as §1
# [22] = target: Man(a1-2)Man(a1-3)[Man(a1-6)]Man(a1-6)[Man(a1-2)Man(a1-3)]Man(b1-4)GlcNAc(b1-4)GlcNAc
# In short: as §1
# [23] = target: Man(a1-2)Man(a1-6)[Man(a1-3)]Man(a1-6)[Man(a1-2)Man(a1-2)Man(a1-3)]Man
# In short: as §1
# [24] = target: Man(a1-2)Man(a1-6)[Man(a1-3)]Man(a1-6)[Man(a1-2)Man(a1-2)Man(a1-3)]Man(b1-4)GlcNAc(b1-4)GlcNAc
# In short: as §1
# Man(a1-3)[Man(a1-6)]Man = target: Man(a1-3)[Man(a1-6)]Man
# In short: as §1
# [25] = target: Man(a1-3)[Man(a1-6)]Man(a1-6)[Man(a1-2)Man(a1-3)]Man(b1-4)GlcNAc(b1-4)GlcNAc
# In short: as §1
# [26] = target: Man(a1-3)[Man(a1-6)]Man(a1-6)[Man(a1-3)]Man
# In short: as §1
# [27] = target: Man(a1-3)[Man(a1-6)]Man(a1-6)[Man(a1-3)]Man(b1-4)GlcNAc(b1-4)GlcNAc
# In short: as §1
# [28] = target: Man(a1-3)[Man(a1-6)]Man(b1-4)GlcNAc(b1-4)GlcNAc
# In short: as §1
# Man(a1-6)Man = target: Man(a1-6)Man
# In short: as §1
# Man(b1-4)GlcNAc = target: Man(b1-4)GlcNAc
# In short: as §1
# Neu5Ac(a2-3)Gal = target: Neu5Ac(a2-3)Gal
# In short: as §1
# [29] = target: Neu5Ac(a2-3)Gal(b1-3)GalNAc
# In short: as §1
# [30] = target: Neu5Ac(a2-3)Gal(b1-3)GalNAc(b1-3)Gal(a1-4)Gal(b1-4)Glc
# In short: as §1
# [31] = target: Neu5Ac(a2-3)Gal(b1-3)GalNAc(b1-3)Gal(b1-4)GlcNAc
# In short: as §1
# [32] = target: Neu5Ac(a2-3)Gal(b1-3)GalNAc(b1-4)[Neu5Ac(a2-3)]Gal(b1-4)Glc
# In short: as §1
# [33] = target: Neu5Ac(a2-3)Gal(b1-3)GalNAc6S
# In short: as §1
# [34] = target: Neu5Ac(a2-3)Gal(b1-3)GlcNAc
# In short: as §1
# [35] = target: Neu5Ac(a2-3)Gal(b1-3)GlcNAc(b1-3)Gal(b1-3)GlcNAc
# In short: as §1
# [36] = target: Neu5Ac(a2-3)Gal(b1-3)GlcNAc6S
# In short: as §1
binder,measurement,setting,value
BDCA2 ex-domain (Homo sapiens) (protein) MASHHHHHHIEGRGLNDIFEAQKIEWHESLVPRGSCPTPWTSFQSSCYFISTGMQSWTKSQKNCSVMGADLVVINTREEQDFIIQNLKRNSSYFLGLSDPGGRRHWQWVDQTPYNENVTFWHSGEPNNLDERCAIINFRSSEEWGWNDIHCHVPQKSICKMKKIY,glycan array binding signal (z-score),GalNAc(b1-3)GalNAc,-0.333
same,glycan array binding signal (z-score),GalNAc(b1-4)GlcNAc,-0.278
same,glycan array binding signal (z-score),Glc(a1-4)Glc,-0.018
same,glycan array binding signal (z-score),Glc(a1-6)Glc(a1-6)Glc,-0.187
same,glycan array binding signal (z-score),Glc(b1-4)Glc,-0.389
same,glycan array binding signal (z-score),Glc(b1-6)Glc,-0.341
same,glycan array binding signal (z-score),GlcA(b1-3)Gal,-0.219
same,glycan array binding signal (z-score),GlcA(b1-3)GlcNAc,-0.1
same,glycan array binding signal (z-score),GlcA(b1-6)Gal,-0.124
same,glycan array binding signal (z-score),[1],0.295
same,glycan array binding signal (z-score),[2],-0.184
same,glycan array binding signal (z-score),[3],-0.107
same,glycan array binding signal (z-score),[4],0.168
same,glycan array binding signal (z-score),GlcNAc(b1-3)Gal,-0.292
same,glycan array binding signal (z-score),[5],-0.205
same,glycan array binding signal (z-score),GlcNAc(b1-3)Gal(b1-4)Glc,-0.489
same,glycan array binding signal (z-score),[6],0.78
same,glycan array binding signal (z-score),[7],-0.287
same,glycan array binding signal (z-score),GlcNAc(b1-3)GalNAc,-0.327
same,glycan array binding signal (z-score),GlcNAc(b1-3)Man,-0.346
same,glycan array binding signal (z-score),[8],-0.282
same,glycan array binding signal (z-score),[9],-0.208
same,glycan array binding signal (z-score),[10],-0.347
same,glycan array binding signal (z-score),[11],0.139
same,glycan array binding signal (z-score),GlcNAc(b1-4)GlcNAc,-0.335
same,glycan array binding signal (z-score),[12],-0.131
same,glycan array binding signal (z-score),[13],0.741
same,glycan array binding signal (z-score),[14],0.075
same,glycan array binding signal (z-score),[15],-0.182
same,glycan array binding signal (z-score),[16],0.056
same,glycan array binding signal (z-score),GlcNAc(b1-6)GalNAc,-0.279
same,glycan array binding signal (z-score),GlcNAc3Prop(b1-4)GlcNAc,-0.45
same,glycan array binding signal (z-score),Kdn(a2-3)Gal(b1-3)GlcNAc,-0.114
same,glycan array binding signal (z-score),Kdn(a2-3)Gal(b1-4)GlcNAc,0.619
same,glycan array binding signal (z-score),[17],-0.52
same,glycan array binding signal (z-score),[18],-0.128
same,glycan array binding signal (z-score),Man(a1-2)Man(a1-3)Man,-0.407
same,glycan array binding signal (z-score),[19],0.622
same,glycan array binding signal (z-score),[20],-0.068
same,glycan array binding signal (z-score),[21],0.299
same,glycan array binding signal (z-score),[22],0.107
same,glycan array binding signal (z-score),[23],-0.559
same,glycan array binding signal (z-score),[24],-0.433
same,glycan array binding signal (z-score),Man(a1-3)[Man(a1-6)]Man,-0.26
same,glycan array binding signal (z-score),[25],0.3
same,glycan array binding signal (z-score),[26],-0.134
same,glycan array binding signal (z-score),[27],0.206
same,glycan array binding signal (z-score),[28],-0.15
same,glycan array binding signal (z-score),Man(a1-6)Man,0.887
same,glycan array binding signal (z-score),Man(b1-4)GlcNAc,0.076
same,glycan array binding signal (z-score),Neu5Ac(a2-3)Gal,-0.249
same,glycan array binding signal (z-score),[29],0.865
same,glycan array binding signal (z-score),[30],-0.195
same,glycan array binding signal (z-score),[31],0.751
same,glycan array binding signal (z-score),[32],0.273
same,glycan array binding signal (z-score),[33],-0.02
same,glycan array binding signal (z-score),[34],-0.015
same,glycan array binding signal (z-score),[35],-0.143
same,glycan array binding signal (z-score),[36],0.425
